No constants are given. Whether binding was seen depends on the method and setting. Some entries that bind do so weakly or less than the wild type.

The chains behind the UniProt entries cited, without tags or fusion partners.
UniProt P29468: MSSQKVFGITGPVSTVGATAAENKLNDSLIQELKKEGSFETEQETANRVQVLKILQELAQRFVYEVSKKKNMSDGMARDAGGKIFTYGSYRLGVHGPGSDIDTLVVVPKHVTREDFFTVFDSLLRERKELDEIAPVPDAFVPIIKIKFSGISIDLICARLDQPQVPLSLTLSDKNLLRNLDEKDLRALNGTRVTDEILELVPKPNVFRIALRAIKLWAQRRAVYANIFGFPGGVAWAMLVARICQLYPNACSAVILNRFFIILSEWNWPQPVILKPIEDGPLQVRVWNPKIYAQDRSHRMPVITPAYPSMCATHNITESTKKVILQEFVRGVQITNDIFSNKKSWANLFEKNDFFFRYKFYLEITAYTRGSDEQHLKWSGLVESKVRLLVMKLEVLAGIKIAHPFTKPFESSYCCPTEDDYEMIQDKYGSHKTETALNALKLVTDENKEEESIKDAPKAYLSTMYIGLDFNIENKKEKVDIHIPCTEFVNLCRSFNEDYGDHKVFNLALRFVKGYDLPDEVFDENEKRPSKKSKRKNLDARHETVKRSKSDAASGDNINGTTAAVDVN
UniProt P53538: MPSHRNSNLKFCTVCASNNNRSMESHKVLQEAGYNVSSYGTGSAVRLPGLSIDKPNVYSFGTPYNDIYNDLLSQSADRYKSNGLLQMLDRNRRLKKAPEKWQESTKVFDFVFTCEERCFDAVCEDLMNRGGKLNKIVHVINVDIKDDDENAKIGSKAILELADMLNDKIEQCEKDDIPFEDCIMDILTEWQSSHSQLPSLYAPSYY
UniProt P32598: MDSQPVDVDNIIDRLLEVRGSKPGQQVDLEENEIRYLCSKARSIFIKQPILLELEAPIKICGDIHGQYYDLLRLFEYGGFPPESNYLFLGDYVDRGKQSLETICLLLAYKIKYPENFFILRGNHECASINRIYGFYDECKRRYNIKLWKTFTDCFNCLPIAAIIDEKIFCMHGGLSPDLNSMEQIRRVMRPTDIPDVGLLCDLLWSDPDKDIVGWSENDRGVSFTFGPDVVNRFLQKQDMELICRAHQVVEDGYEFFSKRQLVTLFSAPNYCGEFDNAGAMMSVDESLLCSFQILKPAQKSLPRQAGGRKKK

Test [1] addresses T1, Pta1-TAPS (S. cerevisiae) (UniProt Q01329).
T1 sequence: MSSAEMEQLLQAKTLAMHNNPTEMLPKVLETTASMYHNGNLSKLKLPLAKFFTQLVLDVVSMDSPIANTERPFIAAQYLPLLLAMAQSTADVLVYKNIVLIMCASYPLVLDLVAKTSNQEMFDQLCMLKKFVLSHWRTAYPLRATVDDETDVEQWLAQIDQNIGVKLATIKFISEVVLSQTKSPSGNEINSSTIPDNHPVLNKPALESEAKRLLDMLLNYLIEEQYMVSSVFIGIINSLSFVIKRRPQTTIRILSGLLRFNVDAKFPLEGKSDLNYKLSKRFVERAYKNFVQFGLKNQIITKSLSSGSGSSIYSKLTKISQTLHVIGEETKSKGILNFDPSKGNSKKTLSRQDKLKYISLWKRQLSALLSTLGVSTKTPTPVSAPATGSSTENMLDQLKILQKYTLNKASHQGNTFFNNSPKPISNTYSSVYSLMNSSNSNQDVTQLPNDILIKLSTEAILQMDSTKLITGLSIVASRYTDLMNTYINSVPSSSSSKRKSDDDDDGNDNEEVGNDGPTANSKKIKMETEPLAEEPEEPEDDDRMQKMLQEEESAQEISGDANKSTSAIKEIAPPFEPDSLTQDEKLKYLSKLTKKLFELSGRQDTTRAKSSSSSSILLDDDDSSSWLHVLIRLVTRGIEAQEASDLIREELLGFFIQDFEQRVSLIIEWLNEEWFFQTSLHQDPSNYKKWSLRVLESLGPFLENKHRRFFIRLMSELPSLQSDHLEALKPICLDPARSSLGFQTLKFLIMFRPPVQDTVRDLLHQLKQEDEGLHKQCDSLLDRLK
The experiment in a line: SEC; TAPS affinity purification from tagged yeast strain, then Superose 6 PC 3.2/30 in 20 mM HEPES pH 7.9, 150 mM KCl, 3 mM DTT, 0.5 mM Mg(OAc)2, 0.5 mM MnCl2; fractions on Coomassie-stained SDS-PAGE. Background: In gel filtration, larger molecules generally elute earlier.

For test [2], the target named is T2, Ref2-TAPS (S. cerevisiae) (UniProt P42073).
T2 sequence: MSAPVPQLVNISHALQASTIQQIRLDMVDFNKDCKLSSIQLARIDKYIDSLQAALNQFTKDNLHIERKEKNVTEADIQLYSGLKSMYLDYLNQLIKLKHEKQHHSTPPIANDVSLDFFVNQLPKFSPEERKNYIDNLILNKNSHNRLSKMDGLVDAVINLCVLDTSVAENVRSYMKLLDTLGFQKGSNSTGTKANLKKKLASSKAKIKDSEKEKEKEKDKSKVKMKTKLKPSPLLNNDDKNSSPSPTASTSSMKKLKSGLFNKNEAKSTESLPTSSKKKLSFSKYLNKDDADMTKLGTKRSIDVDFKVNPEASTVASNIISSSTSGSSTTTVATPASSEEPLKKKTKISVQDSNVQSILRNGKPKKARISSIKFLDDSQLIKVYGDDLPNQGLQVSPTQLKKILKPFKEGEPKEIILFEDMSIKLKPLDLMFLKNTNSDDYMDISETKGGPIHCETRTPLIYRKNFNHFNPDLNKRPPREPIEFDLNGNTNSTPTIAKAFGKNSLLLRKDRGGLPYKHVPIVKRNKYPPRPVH
The test is described as above.

Test [3] addresses T3, Syc1-TAPS (S. cerevisiae) (UniProt Q08553).
T3 sequence: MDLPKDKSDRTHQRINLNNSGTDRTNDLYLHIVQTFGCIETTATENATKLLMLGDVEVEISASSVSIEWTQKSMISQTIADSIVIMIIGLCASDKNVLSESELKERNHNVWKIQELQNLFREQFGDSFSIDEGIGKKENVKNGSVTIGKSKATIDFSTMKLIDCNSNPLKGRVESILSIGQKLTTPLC
The description is as above.

Test [4] addresses T1, Pta1-TAPS (S. cerevisiae). The experiment in a line: anion exchange chromatography; TAPS affinity purification from tagged yeast strain (Ref2-tagged; Pta1-tagged with SYC1 deleted), then Mono Q 5/50 GL in 20 mM HEPES pH 7.9, 150 mM KCl, 3 mM DTT, 0.5 mM Mg(OAc)2; APT eluted at 260 mM KCl and CPF at 400 mM KCl.
The target of test [5] is T2, Ref2-TAPS (S. cerevisiae). Described as above.
Test [6] deals with T4, Mpe1-TAPS (S. cerevisiae) (UniProt P35728).
T4 sequence: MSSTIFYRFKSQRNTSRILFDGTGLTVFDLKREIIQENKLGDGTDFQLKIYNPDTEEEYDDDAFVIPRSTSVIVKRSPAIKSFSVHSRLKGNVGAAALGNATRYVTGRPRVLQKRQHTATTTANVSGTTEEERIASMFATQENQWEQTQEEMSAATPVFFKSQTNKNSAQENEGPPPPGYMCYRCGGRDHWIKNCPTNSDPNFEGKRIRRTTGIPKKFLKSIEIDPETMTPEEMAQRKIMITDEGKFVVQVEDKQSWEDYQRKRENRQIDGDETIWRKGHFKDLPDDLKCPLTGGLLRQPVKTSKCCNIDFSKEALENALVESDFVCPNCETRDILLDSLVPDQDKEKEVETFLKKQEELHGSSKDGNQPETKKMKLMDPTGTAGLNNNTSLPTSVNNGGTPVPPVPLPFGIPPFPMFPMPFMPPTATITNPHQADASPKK
In words: SEC; TAPS affinity purification from tagged yeast strain, then Superose 6 PC 3.2/30 in 20 mM HEPES pH 7.9, 150 mM KCl, 3 mM DTT, 0.5 mM Mg(OAc)2, 0.5 mM MnCl2; fractions on Coomassie-stained SDS-PAGE.

The target of test [7] is Pap1-TAPS (S. cerevisiae) (UniProt P29468). The test is described as above.

As to “Pap1 (from UniProt P29468 1-568) (enzyme)”, the binding entry in test [1] is “binds”; in test [2], “binds”; in test [3] it was “no binding”; in test [4], “binds”; in test [5] it was “binds”.
Turning to “Ssu72 (from UniProt P53538 1-206) (enzyme)”, the binding entry in test [1], in test [2], in test [3], in test [6], in test [7] and in test [4] was “binds” in each case. Also, the binding result in test [5] was “binds”.
For the substance “Glc7 (from UniProt P32598 1-312) (enzyme)”, the binding result in test [1], in test [2], in test [3], in test [6], in test [7] and in test [4] was “binds” throughout. In addition, the binding entry in test [5] is on record as “binds”.

The record behind these values is PMC6265451.
